Reference: PubChem BioAssay AID588855 (National Center for Advancing Translational Sciences (NCATS), 2011)
In all, about 410,000 compounds went through this assay and about 5,000 (1.2%) were called active. Inconclusive means that the source gave no clear call. Such entries were picked first, then a sample of the others. Calls come from the whole dose curve; as a rule, active = well fitted inhibition curve with a large enough effect; inconclusive = small, poorly fitted or top-dose-only effect; inactive = no such curve, though single readings can be large or run the other way. Potencies of inconclusive entries are doubtful fits and often do not repeat.

assay: qHTS for Inhibitors of TGF-b; conditions: HepG2 CAGA-GFP TGF-b/SMAD3 reporter, GFP fluorescence, 18 h, TGF-beta stimulated, 500 pg/mL final; series mostly up to 46.1 µM; note: nearly all actives have a fitted effect of over 65% in size
Procedure, shortened: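 Per well, imaged GFP fluorescence of HEPG2 CAGA-GFP cells gives the signal; cells get compound, then TGF-beta (500 pg/mL final), 18 h at 37 degrees C; %Activity versus -TGF-beta and +DMSO controls.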
Potency is the fitted concentration of half-maximal effect; tags give direction and shape of the fitted curve.

SMILES	Potency
COc1ccccc1C(=O)NC(CCSC)C(=O)OCC(=O)N1CCCC1=O (configuration not stated)	inactive
COc1ccc(OC)c(CN2CCN(C(=O)CCC(=O)c3cccs3)CC2)c1	inconclusive: 35.5 µM [inhibitor, single point]
CCOc1cc(-c2nc(-c3ccc(Br)cc3)no2)cc(OCC)c1OCC	inactive
O=C(COc1ccccc1)N(Cc1cccnc1)c1nc2ccc(F)cc2s1	inconclusive: 7.08 µM [inhibitor, partial curve]
O=C(NC(c1ccc(Cl)cc1)c1c(O)ccc2ccccc12)c1ccccc1 (configuration not stated)	active: 11.2 µM
CC(C)(C)Cc1c(-c2ccc(C#N)cc2)nc2c(Cl)cc(C(F)(F)F)cn12	inconclusive: 11.2 µM [inhibitor, partial curve, poor fit]
COc1ccc(CC(C(=O)Nc2cccc(F)c2)c2nn[nH]n2)c(OC)c1 (configuration not stated)	inconclusive: 3.16 µM [inhibitor, single point]
O=C(COC(=O)c1ccccc1O)NCCc1c[nH]c2ccccc12	inconclusive: 1.41 µM [inhibitor, partial curve, poor fit]
O=C(NC(C(=O)N/N=C/c1cccc2ccccc12)c1n[nH]c(=O)c2ccccc12)c1ccccc1 (configuration not stated)	inconclusive: 35.5 µM [inhibitor, single point]
CCN1C(=O)C(CC(=O)Nc2ccc(F)cc2)N(Cc2ccco2)C1=S (configuration not stated)	inactive
O=C(CCC(=O)N1CCSc2ccccc21)NCc1cccc(Cl)c1	inconclusive: 1.26 µM [inhibitor, full curve]
O=S(=O)(c1cc(Cl)ccc1Cl)N1CCc2ccccc21	inconclusive: 17.8 µM [inhibitor, single point]
CCN(CC)Cc1nc2c(c(=O)[nH]1)C(CC)(CC)Cc1ccccc1-2	inconclusive: 12.6 µM [inhibitor, single point]
Cc1sc(NC(=O)c2ccco2)c(C(c2cccnc2)N2CCCC2)c1C (configuration not stated)	inconclusive: 35.5 µM [inhibitor, partial curve, poor fit]
COc1ccc2[nH]cc(C(=O)CCl)c2c1	inconclusive: 15.8 µM [inhibitor, single point]
Cc1cc(NC(=O)CSc2nc(C(C)(C)C)nc3ccccc23)no1	inconclusive: 10 µM [inhibitor, partial curve, poor fit]
Cn1cnc([N+](=O)[O-])c1Oc1ccccc1	inactive
Cc1cc(C)cc(NS(=O)(=O)c2ccc3c(c2)CCCN3C(=O)C2CCC2)c1	inconclusive: 17.8 µM [inhibitor, single point]
O=C(CCN1CCc2ccccc2C1)Nc1ccc2c(c1)OCO2	inactive
O=C(c1ccncc1)N(c1ccc2oc3c(c2c1)CCCC3)S(=O)(=O)c1cccc([N+](=O)[O-])c1	inactive
CC(=O)c1nnn(-c2cccc([N+](=O)[O-])c2)c1C	inconclusive: 5.62 µM [inhibitor, single point]

SMILES	Potency
CCc1nc2c(OCC(=O)c3ccc(Cl)cc3Cl)cccn2c1N(C)C(=O)c1cccs1	inconclusive: 22.4 µM [inhibitor, single point]
CC(C)Oc1ccc(Cc2n[nH]c(=S)n2Cc2ccccc2)cc1Cl	inconclusive: 5.01 µM [inhibitor, full curve]
O=C(Nc1ccc(F)cc1)Nc1cccc(Br)c1	inconclusive: 28.2 µM [inhibitor, single point]
CC(=O)C1=NN(c2ccccc2)C(c2ccc3c(c2)OCO3)N1c1ccc(N2CCOCC2)cc1 (configuration not stated)	inconclusive: 6.31 µM [inhibitor, single point]
CCCCCC(=O)NC(=S)Nc1ccc(Cl)cn1	inconclusive: 28.2 µM [inhibitor, single point]
COc1ccc(Nc2nnc(SCC(=O)Nc3ccc4[nH]c(=O)[nH]c4c3)s2)cc1	inconclusive: 25.1 µM [inhibitor, single point]
COc1ccc(C(C)(O)c2nc(-c3csc4ccccc34)cs2)cc1 (configuration not stated)	inconclusive: 35.5 µM [inhibitor, single point]
COC(=O)c1c(C)oc2ccc(N(C(=O)c3ccncc3)S(=O)(=O)c3ccc(C)cc3)cc12	inconclusive: 35.5 µM [inhibitor, single point]
CCOc1ccccc1NS(=O)(=O)c1ccc(-c2cnc(C3CC3)o2)cc1	active: 4.47 µM
C[C@H](NC(=O)c1nc[nH]c1C(=O)N[C@@H](CCCCNC(=O)OC(C)(C)C)C(=O)OC(C)(C)C)C(=O)OCc1ccccc1	inconclusive: 35.5 µM [inhibitor, single point]
COc1ccc(Cl)cc1NC(=O)[C@@]1(CC(=O)O)CC(/C=C/c2ccccc2)=NO1	inactive
Cc1ccc(CSc2nc3ccsc3c(=O)n2Cc2ccccn2)cc1	inconclusive: 35.5 µM [inhibitor, single point]
CO/N=C/c1ccc(N2CCN(C(=O)c3ccc(F)cc3)CC2)c([N+](=O)[O-])c1	inactive
CC(=O)N1CCCc2cc(S(=O)(=O)N3CCCC(C(=O)Nc4cc(Cl)ccc4C)C3)ccc21 (configuration not stated)	inconclusive: 35.5 µM [inhibitor, single point]
O=C(CS(=O)(=O)c1ccc2ccccc2c1)N1CCCCCC1	inactive
CC(C)(C)C(=O)Cn1c(=N)n(Cc2ccccc2)c2ccccc21	inconclusive: 11.2 µM [inhibitor, partial curve, poor fit]
CCOC(=O)c1c(Cc2ccc(Cl)cc2)c[nH]c1C	inconclusive: 31.6 µM [inhibitor, single point]
CC1=C(C(=O)Nc2cccnc2)C(c2ccccc2)n2nc(-c3ccc(O)cc3)nc2N1 (configuration not stated)	inconclusive: 1.12 µM [inhibitor, full curve, poor fit]
C=Cc1ccc(Cn2c(C(=O)O)c(CNCc3ccccc3)c3ccc(C)cc32)cc1	inconclusive: 17.8 µM [inhibitor, partial curve, poor fit]
CC1(C(=O)NCCc2c[nH]c3ccccc23)CCN1Cc1csc2ccccc12 (configuration not stated)	inactive
Cc1cc(C(=O)Nc2nc3c(C)cccc3s2)c(C)o1	inconclusive: 5.62 µM [inhibitor, single point]
